In the supplement of paper PMC4967469:
Lines with a small IC50 respond at low doses; a limit (>, <) means that the fit lies beyond the doses tested. AUC, from the same fit, is the share of area under the viability curve across the 256-fold dose range; values near 1 show little effect. For part of these data: Any top dose called inferred is not printed in the source and was worked back from the curve model. For part of these data: Where an entry number is given, a second screen of the drug exists; the two often differ.

Columns and labels:
Experiment in all cases: Viability of human cancer cell lines after 72 h of drug (GDSC screen)
Thapsigargin = compound: C/C=C(/C)C(=O)O[C@H]1C(C)=C2[C@H]([C@@H]1OC(=O)CCCCCCC)[C@@](C)(OC(C)=O)C[C@H](OC(=O)CCC)[C@@]1(O)[C@H]2OC(=O)[C@@]1(C)O [Thapsigargin]; details: top dose 0.512 µM; top dose inferred
Description: (§1)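 Human cancer cell lines in 384-well plates, medium with 10% serum, drug for 72 h over a 256-fold dose range (nine 2-fold or five 4-fold steps up to the top dose). Adherent lines were fixed and stained with the nucleic acid dye Syto60, suspension lines read with resazurin; signal relative to control wells, capped at 0 and 100%. One two-parameter sigmoid per drug and line, fitted in a mixed model over all curves with the slope shared within a line.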

ABT-869 = compound: Cc1ccc(F)c(NC(=O)Nc2ccc(-c3cccc4[nH]nc(N)c34)cc2)c1 [ABT-869]; details: top dose 1.024 µM; top dose inferred
Description: as §1

QL-X-138 = compound: C=CC(=O)Nc1cc(-n2c(=O)ccc3cnc4ccc(-c5cn[nH]c5)cc4c32)ccc1C [QL-X-138]; details: top dose 10.24 µM; top dose inferred
Description: as §1

KU-55933 = compound: O=c1cc(-c2cccc3c2Sc2ccccc2S3)oc(N2CCOCC2)c1 [KU-55933]; details: top dose 10 µM
Description: as §1

CHIR-99021 = compound: Cc1cnc(-c2cnc(NCCNc3ccc(C#N)cn3)nc2-c2ccc(Cl)cc2Cl)[nH]1 [CHIR-99021]
Description: as §1

Zibotentan = compound: COc1nc(C)cnc1NS(=O)(=O)c1cccnc1-c1ccc(-c2nnco2)cc1 [Zibotentan]; details: top dose 20 µM; top dose inferred
Description: as §1

ABT-888 = compound: C[C@]1(c2nc3c(C(N)=O)cccc3[nH]2)CCCN1 [ABT-888]; details: top dose 5 µM; top dose inferred
Description: as §1

CP466722 = compound: COc1cc2ncnc(-n3nc(-c4ccccn4)nc3N)c2cc1OC [CP466722]; details: top dose 16 µM; top dose inferred
Description: as §1

Cytarabine = compound: Nc1ccn([C@@H]2O[C@H](CO)[C@@H](O)[C@@H]2O)c(=O)n1 [Cytarabine]; details: top dose 2 µM
Description: as §1

MPS-1-IN-1 = compound: COc1cc(N2CCC(O)CC2)ccc1Nc1cc(Nc2ccccc2S(=O)(=O)C(C)C)c2cc[nH]c2n1 [MPS-1-IN-1]; details: top dose 20 µM; top dose inferred
Description: as §1

GSK269962A = compound: CCn1c(-c2nonc2N)nc2cnc(Oc3cccc(NC(=O)c4ccc(OCCN5CCOCC5)cc4)c3)cc21 [GSK269962A]; details: top dose 5 µM; screen: GDSC drug entry 1192; top dose inferred
Description: as §1

(5Z)-7-Oxozeaenol = compound: COc1cc(O)c2c(c1)/C=C/C[C@H](O)[C@H](O)C(=O)/C=C\C[C@H](C)OC2=O [(5Z)-7-Oxozeaenol]; details: top dose 10 µM; top dose inferred
Description: as §1

[1] = top dose 2.56 µM, screen: GDSC drug entry 154
[2] = top dose 10 µM, screen: GDSC drug entry 1241, top dose inferred

| Cell Line | AUC (Thapsigargin) | IC50 (Thapsigargin) | AUC (ABT-869) | IC50 (ABT-869) | AUC (QL-X-138) | IC50 (QL-X-138) | AUC (KU-55933) | IC50 (KU-55933) | AUC (CHIR-99021; [1]) | IC50 (CHIR-99021; [1]) | AUC (Zibotentan) | IC50 (Zibotentan) | AUC (ABT-888) | IC50 (ABT-888) | AUC (CP466722) | IC50 (CP466722) | AUC (Cytarabine) | IC50 (Cytarabine) | AUC (MPS-1-IN-1) | IC50 (MPS-1-IN-1) | AUC (GSK269962A) | IC50 (GSK269962A) | AUC (CHIR-99021; [2]) | IC50 (CHIR-99021; [2]) | AUC ((5Z)-7-Oxozeaenol) | IC50 ((5Z)-7-Oxozeaenol) |
| --- | --- | --- | --- | --- | --- | --- | --- | --- | --- | --- | --- | --- | --- | --- | --- | --- | --- | --- | --- | --- | --- | --- | --- | --- | --- | --- |
| PA-1 (ovary, adherent) | 0.107 | 0.00271 µM | 0.993 | > 1.02 µM | 0.31 | 0.215 µM | 0.967 | > 10 µM | 0.934 | > 2.56 µM | 0.977 | > 20 µM | 0.992 | > 5 µM | 0.566 | 1.45 µM | 0.718 | 0.44 µM | 0.705 | 4.05 µM |  |  |  |  |  |  |
| PFSK-1 (medulloblastoma, adherent) | 0.39 | 0.0156 µM | 0.978 | > 1.02 µM | 0.627 | 1.46 µM | 0.952 | > 10 µM | 0.967 | > 2.56 µM | 0.985 | > 20 µM | 0.919 | > 5 µM | 0.789 | 7.54 µM | 0.818 | 1.22 µM | 0.907 | > 20 µM | 0.879 | > 5 µM |  |  |  |  |
| SAT (head and neck, adherent) | 0.477 | 0.0267 µM | 0.966 | > 1.02 µM | 0.953 | > 10.2 µM | 0.943 | > 10 µM | 0.935 | > 2.56 µM | 0.974 | > 20 µM | 0.882 | > 5 µM | 0.826 | > 16 µM | 0.844 | > 2 µM | 0.84 | > 20 µM |  |  |  |  |  |  |
| SNU-407 (large intestine, adherent) |  |  | 0.983 | > 1.02 µM | 0.764 | 4.32 µM | 0.965 | > 10 µM |  |  | 0.973 | > 20 µM | 0.974 | > 5 µM | 0.807 | 9.9 µM | 0.812 | 1.3 µM | 0.788 | 10.4 µM | 0.666 | 0.986 µM | 0.981 | > 10 µM | 0.506 | 0.652 µM |
| SNU-C5 (large intestine, adherent) |  |  | 0.974 | > 1.02 µM | 0.887 | > 10.2 µM | 0.906 | > 10 µM |  |  | 0.985 | > 20 µM | 0.985 | > 5 µM | 0.936 | > 16 µM | 0.696 | 0.474 µM | 0.939 | > 20 µM | 0.96 | > 5 µM | 0.894 | > 10 µM | 0.634 | 1.53 µM |
| STS-0421 (soft tissue, adherent) | 0.267 | 0.00609 µM |  |  |  |  | 0.982 | > 10 µM | 0.982 | > 2.56 µM |  |  | 0.982 | > 5 µM | 0.747 | 5.87 µM | 0.82 | 1.41 µM |  |  | 0.884 | > 5 µM | 0.959 | > 10 µM | 0.593 | 1.18 µM |
| SW626 (ovary, adherent) | 0.411 | 0.0174 µM | 0.973 | > 1.02 µM | 0.694 | 2.5 µM | 0.978 | > 10 µM | 0.98 | > 2.56 µM | 0.978 | > 20 µM | 0.983 | > 5 µM | 0.785 | 8.27 µM | 0.881 | > 2 µM |  |  | 0.897 | > 5 µM | 0.978 | > 10 µM | 0.585 | 1.12 µM |
| SW1271 (small cell lung carcinoma, adherent) |  |  | 0.982 | > 1.02 µM | 0.599 | 1.25 µM | 0.977 | > 10 µM | 0.891 | > 2.56 µM | 0.98 | > 20 µM | 0.984 | > 5 µM | 0.748 | 5.85 µM | 0.767 | 0.852 µM | 0.848 | 18.5 µM | 0.891 | > 5 µM | 0.857 | > 10 µM | 0.587 | 1.12 µM |
| TE-4 (oesophagus, adherent) |  |  | 0.983 | > 1.02 µM | 0.823 | 6.03 µM | 0.932 | > 10 µM |  |  | 0.985 | > 20 µM | 0.987 | > 5 µM | 0.962 | > 16 µM | 0.698 | 0.449 µM | 0.969 | > 20 µM | 0.902 | > 5 µM | 0.957 | > 10 µM | 0.807 | 5.1 µM |
| TOV-112D (ovary, adherent) | 0.084 | < 0.002 µM | 0.971 | > 1.02 µM |  |  | 0.907 | > 10 µM | 0.986 | > 2.56 µM | 0.976 | > 20 µM | 0.974 | > 5 µM | 0.693 | 3.49 µM | 0.763 | 0.728 µM | 0.885 | > 20 µM | 0.876 | > 5 µM | 0.984 | > 10 µM | 0.544 | 0.822 µM |
| UWB1.289 (ovary, adherent) |  |  | 0.975 | > 1.02 µM | 0.816 | 9.82 µM | 0.932 | > 10 µM |  |  | 0.95 | > 20 µM | 0.979 | > 5 µM | 0.872 | > 16 µM | 0.907 | > 2 µM | 0.934 | > 20 µM | 0.975 | > 5 µM | 0.948 | > 10 µM | 0.724 | 3.78 µM |
| WM35 (melanoma, adherent) | 0.287 | 0.00796 µM | 0.977 | > 1.02 µM |  |  | 0.96 | > 10 µM | 0.887 | > 2.56 µM | 0.974 | > 20 µM | 0.983 | > 5 µM | 0.985 | > 16 µM | 0.788 | 0.886 µM | 0.686 | 4.18 µM | 0.983 | > 5 µM | 0.942 | > 10 µM | 0.115 | < 0.0391 µM |
